Reference: article PMC2691479, “SNX4 in Complex with Clathrin and Dynein: Implications for Endosome Movement” (PLoS ONE, 2009)
No constants are given. Whether binding was seen depends on the method and setting. In cells and extracts the contact can be indirect. Some entries that bind do so weakly or less than the wild type. For part of these data: Tags and fused reporters may be left off the sequences shown.

Amino acid sequences for entries named in this document (tags omitted).
UniProt Q00610: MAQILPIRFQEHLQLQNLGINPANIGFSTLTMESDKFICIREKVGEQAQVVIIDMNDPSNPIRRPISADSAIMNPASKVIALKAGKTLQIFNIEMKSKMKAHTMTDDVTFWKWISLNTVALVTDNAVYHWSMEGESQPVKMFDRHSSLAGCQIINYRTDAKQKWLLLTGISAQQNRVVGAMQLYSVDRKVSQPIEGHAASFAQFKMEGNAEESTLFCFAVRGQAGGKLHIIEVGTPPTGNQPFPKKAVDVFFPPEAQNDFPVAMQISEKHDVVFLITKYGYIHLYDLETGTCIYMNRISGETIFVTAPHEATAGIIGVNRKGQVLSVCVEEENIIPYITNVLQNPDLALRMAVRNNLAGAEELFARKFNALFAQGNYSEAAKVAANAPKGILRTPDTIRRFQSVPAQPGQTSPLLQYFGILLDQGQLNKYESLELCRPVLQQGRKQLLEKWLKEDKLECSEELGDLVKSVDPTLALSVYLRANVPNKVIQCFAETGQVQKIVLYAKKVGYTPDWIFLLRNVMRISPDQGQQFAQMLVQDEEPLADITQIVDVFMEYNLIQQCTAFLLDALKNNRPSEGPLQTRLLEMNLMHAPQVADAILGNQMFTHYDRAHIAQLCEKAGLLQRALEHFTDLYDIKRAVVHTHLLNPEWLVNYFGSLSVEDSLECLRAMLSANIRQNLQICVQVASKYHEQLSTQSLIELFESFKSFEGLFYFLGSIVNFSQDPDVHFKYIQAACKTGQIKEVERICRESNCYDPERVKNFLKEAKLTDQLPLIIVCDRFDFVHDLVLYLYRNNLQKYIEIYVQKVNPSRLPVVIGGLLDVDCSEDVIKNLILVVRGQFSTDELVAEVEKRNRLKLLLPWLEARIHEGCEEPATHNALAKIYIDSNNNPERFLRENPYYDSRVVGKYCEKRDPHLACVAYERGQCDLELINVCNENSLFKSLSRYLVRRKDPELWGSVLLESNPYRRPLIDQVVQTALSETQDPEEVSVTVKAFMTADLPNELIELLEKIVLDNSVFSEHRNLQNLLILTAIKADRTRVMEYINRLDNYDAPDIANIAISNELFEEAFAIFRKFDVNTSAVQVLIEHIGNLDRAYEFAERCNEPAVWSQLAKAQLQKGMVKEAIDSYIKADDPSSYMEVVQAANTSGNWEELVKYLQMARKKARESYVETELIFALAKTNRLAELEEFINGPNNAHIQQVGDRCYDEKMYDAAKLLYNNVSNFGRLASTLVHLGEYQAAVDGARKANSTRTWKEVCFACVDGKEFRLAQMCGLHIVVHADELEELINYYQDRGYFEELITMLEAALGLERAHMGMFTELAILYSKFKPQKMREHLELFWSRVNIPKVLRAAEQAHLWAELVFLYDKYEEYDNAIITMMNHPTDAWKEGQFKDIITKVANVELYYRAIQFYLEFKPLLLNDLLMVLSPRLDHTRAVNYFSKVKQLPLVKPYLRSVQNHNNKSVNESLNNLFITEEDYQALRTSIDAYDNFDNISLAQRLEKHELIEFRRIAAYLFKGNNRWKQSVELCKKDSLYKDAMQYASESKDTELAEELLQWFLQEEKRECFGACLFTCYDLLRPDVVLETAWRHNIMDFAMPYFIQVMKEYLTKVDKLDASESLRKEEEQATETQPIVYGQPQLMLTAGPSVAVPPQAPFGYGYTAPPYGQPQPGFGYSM

Assays:
[1] = target: T1, SNX4 198-451Δ with myc and 6xHis tags (UniProt O95219); assay: co-IP; anti-myc (9E10) immunoprecipitation from lysate of HEK293 cells transfected with myc-tagged SNX4 constructs, 3-4 h at 4°C, Western blot
T1 sequence: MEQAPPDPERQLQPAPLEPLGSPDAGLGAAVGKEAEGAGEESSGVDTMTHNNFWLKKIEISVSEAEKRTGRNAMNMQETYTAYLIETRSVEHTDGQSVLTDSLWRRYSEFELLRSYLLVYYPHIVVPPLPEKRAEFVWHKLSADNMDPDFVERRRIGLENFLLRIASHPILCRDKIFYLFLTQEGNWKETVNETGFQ

[2] = target: T2, SNX4 wt with myc and 6xHis tags (UniProt O95219); assay: as above
T2 sequence: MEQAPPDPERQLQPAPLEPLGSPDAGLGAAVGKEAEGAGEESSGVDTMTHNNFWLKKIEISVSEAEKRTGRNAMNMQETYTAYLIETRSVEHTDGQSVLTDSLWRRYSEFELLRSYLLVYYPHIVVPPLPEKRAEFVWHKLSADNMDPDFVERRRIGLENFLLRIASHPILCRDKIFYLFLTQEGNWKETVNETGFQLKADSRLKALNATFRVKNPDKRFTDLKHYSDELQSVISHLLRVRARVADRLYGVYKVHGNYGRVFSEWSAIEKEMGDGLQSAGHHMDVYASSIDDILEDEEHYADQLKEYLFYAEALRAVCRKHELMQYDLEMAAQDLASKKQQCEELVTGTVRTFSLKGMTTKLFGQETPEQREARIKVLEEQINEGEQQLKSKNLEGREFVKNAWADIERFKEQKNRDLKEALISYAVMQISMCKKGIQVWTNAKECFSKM

[3] = target: T3, GST-Hrs(707-775) (UniProt Q99LI8); assay: pull-down; GST proteins on Glutathione Sepharose beads with 200 µl HEK293 cell lysate, overnight at 4°C, washed with 0.1% Triton X-100 in PBS, Western blot; only the target purified
T3 sequence: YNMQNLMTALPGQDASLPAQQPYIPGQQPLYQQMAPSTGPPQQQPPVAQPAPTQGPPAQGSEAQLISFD

[4] = target: T4, GST-SNX4 101-132 (UniProt O95219); assay: as above
T4 sequence: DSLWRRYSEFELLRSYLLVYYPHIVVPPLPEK

[5] = target: T5, GST-SNX4 105-116 (UniProt O95219); assay: as above
T5 sequence: RRYSEFELLRSY

[6] = target: T6, GST-SNX4 105-116 E109A (UniProt O95219); assay: as above
T6 sequence: RRYSAFELLRSY

[7] = target: T7, GST-SNX4 105-116 E111A (UniProt O95219); assay: as above
T7 sequence: RRYSEFALLRSY

[8] = target: T8, GST-SNX4 105-116 F110A (UniProt O95219); assay: as above
T8 sequence: RRYSEAELLRSY

[9] = target: T9, GST-SNX4 105-116 L112A (UniProt O95219); assay: as above
T9 sequence: RRYSEFEALRSY

[10] = target: T10, GST-SNX4 105-116 L113A (UniProt O95219); assay: as above
T10 sequence: RRYSEFELARSY

[11] = target: T11, Sorting nexin 4 (SNX4), endogenous (human (endogenous in HEK293)) (UniProt O95219); assay: condition: only cells treated with 100 nM wortmannin for 30 min; co-IP; as a1, but HEK293 cells treated with 100 nM wortmannin for 30 min before lysis; anti-SNX4 immunoprecipitation overnight at 4°C
T11 sequence: T2 sequence

[12] = target: T11, Sorting nexin 4 (SNX4), endogenous (human (endogenous in HEK293)); assay: co-IP; anti-SNX4 (E-18) on Protein A Sepharose, HEK293 lysate (0.1 M NaCl, 10 mM Na2HPO4 pH 7.4, 1 mM EDTA, 1% Triton X-100), overnight at 4°C, Western blot; cells untreated, or transfected with control, SNX4 or CHC siRNA, or treated with nocodazole for 30 min

binding [1]: binds
binding [2]: binds
binding [3]: binds
binding [4]: binds
binding [5]: binds
binding [6]: binds
binding [7]: no binding
binding [8]: no binding
binding [9]: no binding
binding [10]: no binding
binding [11]: no binding
binding [12]: binds
Substance: clathrin heavy chain (CHC), endogenous (from UniProt Q00610 1-1675)
